{"source": "PubChem BioAssay AID1671193", "about": "(National Center for Advancing Translational Sciences (NCATS), 2021)", "note": "About 180 (0.12%) of roughly 150,000 compounds were called active. Inconclusive means that the source gave no clear call. Such entries were picked first, then a sample of the others. Calls follow the shape of the dose curve; as a rule, active = well fitted cell-killing curve with a large enough effect; inconclusive = small, poorly fitted or top-dose-only effect, or effect the other way; inactive = flat fitted curve, though single readings scatter. Potencies beside an inconclusive call are fits to weak or partial responses and may not hold up. Potency is read from the fitted curve at half-maximal effect; tags tell the direction and shape of the fitted curve.", "data": [{"assay": "GF-AFC viability counterscreen for inhibitors of alpha-synuclein gene (SNCA) expression; also: nearly all actives have a fitted effect of over 30% in size", "conditions": "HEK-293-SNCA-luc viability, GF-AFC fluorescence, 24 h; activity change, negative = cytotoxicity: at 57.1 µM (top of the series) unless noted", "text": "Assay Submitter (PI): Daniel R. Scoles Ph.D.\nDepartment of Neurology, University of Utah, Salt Lake City, Utah\nAccumulation of alpha-synuclein is a main underlying pathological feature of Parkinson's disease (PD) and alpha-synucleinopathies, for which lowering expression of the alpha-synuclein gene (SNCA) is a potential therapeutic avenue. Using a cell-based luciferase reporter of SNCA expression we performed a quantitative high throughput screen (qHTS) of 155,885 compounds in dose response. The screening assay was generated using genome editing to insert the luciferase gene downstream and in frame of the SNCA gene in HEK-293 cells (1). A viability counterscreen using GF-AFC was used to eliminate cytotoxic and false positive compounds. After in silico analysis (clustering, removal of frequent hitter nuisance chemotypes), inhibitor compounds from the primary screen were selected for follow up and re-tested at 11-doses in the SNCA-luc cells (luciferase and GF-AFC confirmation), and in CMV-luc expressing cell line to flag general transcriptional repressors.\nDescribed herein are the results of the GF-AFC viability counterscreen for SNCA inhibitors; inactivity (no decrease in fluorescence signal, not cytotoxic) is the desired output for this assay.\n1. Dansithong, W., Paul, S., Scoles, D. R., Pulst, S. M., and Huynh, D. P. (2015) Generation of SNCA Cell Models Using Zinc Finger Nuclease (ZFN) Technology for Efficient High-Throughput Drug Screening. PLoS ONE 10, e0136930.\nSEQUENCE No. (e.g., 1, 2, 3, etc.); […] (e.g., Cells, Incubation, Reagent, etc.); VALUE; DESCRIPTION\n1; Cells; 4 uL; Dispense 1500 HEK-293-SNCA-luc cells/well into Greiner 1536-well white / solid bottom tissue culture treated plate. The plate was covered with metal lids with gas-exchange holes.\n2; Incubate; 24 hours; Incubate at 37C, 5% CO2, 95% RH.\n3; Compounds; 23 nL; Compounds and controls were transferred via a Kalypsys Pin Tool (Wako USA) equipped with a 1536-slotted pin array. The plate was covered with metal lids with gas-exchange holes.\n4; Incubate; 24 hours; Incubate at 37C, 5% CO2, 95% RH.\n5; Dispense; 1 uL; Dispense Gly-Phe-7-amino-4-trifluoromethylcoumarin (GF-AFC, prepared at 125 uM in PBS) was added. The plate was covered with metal lids with gas-exchange holes.\n6; Incubate; 30 min; Incubate at 37C, 5% CO2.\n7; Detector; Fluorescence; Measure fluorescence with ViewLux microplate reader (PerkinElmer) equipped with 405/10 excitation and 540/25 emission filters.\n8; Dispense; 3 uL; Dispense ONE-Glo ([…]) lucifase detection reagent was added to each well. Plates were covered with metal lids with gas-exchange holes.\n9; Incubate; 15 min; Incubate at room temperature.\n10; Detector; Luminescence; Measure luminescence with ViewLux microplate reader (PerkinElmer) equipped with clear filters.\nNOTES (numbers refer to sequence above)\n1; HEK-293-SNCA-luc were cultured and suspended in phenol-red free DMEM (4.5 g/L glucose, 25 mM HEPES, cat #21063 (Thermo)).\n3; Compounds were added to the assay plate in an 11-point intra plate dose response, 1:3 titration in DMSO with a final concentration range of […]. Vehicle-only plates, with DMSO being pin-transferred to every well, were inserted at the beginning of screening runs to confirm expected assay performance. Activity was normalized to wells containing medium only (-100% activity, full inhibition) and SNCA-luc cells treated with DMSO vehicle control (0% activity), contained on the same plate as test samples.\n10; Signals were analyzed, and dose-response curves were fit using the Hill equation. Compounds in curve classes -1.1, -1.2, -2.1, -2.2 in the SNCA-luc assay were considered active. Compounds were eliminated from further consideration if also active (curve class -1.1, -1.2, -1.3, -1.4, -2.1, -2.2, -2.3, -2.4) in the GF-AFC cytotoxicity assay.", "values": [{"smiles": "O=C(Cc1ccccc1F)N1CCOc2ccc(CN3CCc4ccccc4C3)cc2C1", "Potency": "inconclusive: 20 µM [cytotoxic, partial curve, poor fit]"}, {"smiles": "COc1ccc(Cl)cc1-c1ccc2c(c1)C(=O)N1C[C@@H](NS(=O)(=O)c3ccc(F)cc3)C[C@H]1C(=O)N2", "Potency": "inconclusive: 31.6 µM [cytotoxic, single point]"}, {"smiles": "Cc1ccc(Cl)cc1-n1nc(-c2c(C)nc3scc(CC(=O)NCCC(C)C)n3c2=O)cc1C", "Potency": "inconclusive: 5.62 µM [cytotoxic, single point]"}, {"smiles": "COc1ccc2c(c1)c(CC(=O)Nc1cccc(F)c1C)c(C)n2C(=O)c1ccc(Cl)cc1", "Potency": "inconclusive: 2.24 µM [cytotoxic, single point]"}, {"smiles": "CC(C)c1noc(CC2CCN(C(=O)c3ccccc3Cl)CC2)n1", "Potency": "inconclusive: 7.08 µM [rising, single point]"}, {"smiles": "O=C(Nc1ccc2c(N3CCCC3)ncnc2c1)c1cccc(Br)c1", "Potency": "inconclusive: 22.4 µM [cytotoxic, single point]"}, {"smiles": "CCNC(=O)N1CCC(c2noc(COc3ccc(C)cc3)n2)CC1", "activity change, negative = cytotoxicity": "inactive: -2.66%"}, {"smiles": "COCCn1c(=O)c(-c2cccc(C#N)c2)nc2cnc(N(C)C)nc21", "Potency": "inconclusive: 22.4 µM [rising, partial curve, poor fit]"}, {"smiles": "CCN(CC1CCOCC1)C(=O)c1cccnc1SC/C=C/c1ccccc1", "activity change, negative = cytotoxicity": "inactive: -3.14%"}, {"smiles": "COc1ccc(-c2noc([C@@H]3CCCN3C(=O)Cc3ccccc3C)n2)cc1OC", "activity change, negative = cytotoxicity": "inactive: -15.6%"}, {"smiles": "CCn1cc(C(=O)NCCc2ccc(OC)c(OC)c2)c(=O)c2cc(S(=O)(=O)N3CCOCC3)ccc21", "Potency": "inconclusive: 15.8 µM [cytotoxic, partial curve, poor fit]"}, {"smiles": "CN(C(=O)Nc1ccccc1)C1CCc2nn(CC3CC3)c(=O)n2CC1", "note": "(stereo not given)", "Potency": "inconclusive: 1.26 µM [rising, full curve, poor fit]"}, {"smiles": "Cc1ccc(-c2cn[nH]c2C2CCCN(C(=O)c3[nH]ncc3Cl)C2)cc1", "note": "(stereo not given)", "Potency": "inconclusive: 10 µM [cytotoxic, partial curve, poor fit]"}, {"smiles": "Clc1cc(NCC2CCCCCC2)n2nccc2n1", "Potency": "inconclusive: 35.5 µM [cytotoxic, partial curve, poor fit]"}, {"smiles": "CSc1ccc(CNC(=O)Cc2csc3ccccc23)cc1", "Potency": "inconclusive: 5.01 µM [rising, full curve, poor fit]"}, {"smiles": "O=C(NC1CCCN(c2cc(-c3ccc(F)cc3)[nH]n2)C1)c1ccc2nc[nH]c2c1", "note": "(stereo not given)", "Potency": "inconclusive: 28.2 µM [cytotoxic, single point]"}, {"smiles": "Cc1ccc(-c2nnc3ccc(-c4ccoc4)nn23)nc1", "Potency": "inconclusive: 35.5 µM [cytotoxic, partial curve, poor fit]"}, {"smiles": "CN(C)c1nc(Cc2ccc(NC(=O)c3ccc4ccccc4c3)cc2)nc(Cl)c1CC(=O)O", "Potency": "inconclusive: 3.83 µM [cytotoxic, partial curve, poor fit]"}, {"smiles": "O=C(NCCCn1ccnc1)C1CCCN(c2nc(-c3ccccc3)nc3c2CCC3)C1", "note": "(stereo not given)", "Potency": "inconclusive: 6.31 µM [cytotoxic, partial curve, poor fit]"}, {"smiles": "COc1ccc(CCNC(=O)Cn2c(=O)n(-c3ccc(OC)c(OC)c3)c(=O)c3ccccc32)cc1OC", "Potency": "inconclusive: 1.58 µM [cytotoxic, full curve, poor fit]"}, {"smiles": "Clc1ccccc1Cc1nc(-c2ccc(OC3CCNC3)cc2)no1", "note": "(stereo not given)", "Potency": "inconclusive: 39.8 µM [cytotoxic, single point]"}, {"smiles": "c1cc(-c2cnn3cc(-c4ccc(OCCN5CCCCC5)cc4)cnc23)ccn1", "Potency": "inconclusive: 4.82 µM [cytotoxic, full curve]"}, {"smiles": "Cc1ccc(S(=O)(=O)N2CCN(Cc3ccccc3)CC2)c(C)c1NS(C)(=O)=O", "Potency": "inconclusive: 10 µM [cytotoxic, partial curve]"}, {"smiles": "CCn1c(C2CCCN(Cc3ccccn3)C2)nn(C)c1=O", "note": "(stereo not given)", "activity change, negative = cytotoxicity": "inactive: -0.649%"}, {"smiles": "CC(=O)c1cnc2ccc(-c3cc(Cl)c(O)c(Cl)c3)nc2c1NC1CCC(CN(C)C)CC1", "note": "(stereo not given)", "Potency": "inconclusive: 0.0428 µM [cytotoxic, full curve]"}, {"smiles": "CCC(CC)C(=O)NC[C@@H]1C=C(C)[C@H](Cc2nc3ccc(C)cc3[nH]2)C[C@H]1C(C)C", "Potency": "inconclusive: 35.5 µM [cytotoxic, single point]"}, {"smiles": "COc1ccc(-n2c(=O)c3c4c(sc3n(CC(=O)N3CCCCC3C)c2=O)CCC4)c(OC)c1", "note": "(stereo not given)", "Potency": "inconclusive: 22.4 µM [cytotoxic, partial curve, poor fit]"}, {"smiles": "Cc1ccc(Cl)cc1NC(=O)c1cc2c(=O)n3cccc(C)c3nc2n1C", "Potency": "inconclusive: 0.251 µM [rising, full curve, poor fit]"}, {"smiles": "O=C1NCCCCCCN(S(=O)(=O)c2cccnc2)[C@H]2C[C@H](c3nc(-c4cccnc4)no3)C[C@@H]12", "Potency": "inconclusive: 5.01 µM [rising, partial curve, poor fit]"}, {"smiles": "COc1ccc(C(=O)N2CCc3ccc(C(=O)NCc4cccs4)cc32)cc1", "Potency": "inconclusive: 28.2 µM [cytotoxic, single point]"}]}]}
